The values below come from article PMC2792720, “Binding of NIR-conPK and NIR-6T to Astrocytomas and Microglial Cells: Evidence for a Protein Related to TSPO” (PLoS ONE, 2009).

A number of entries come with more than one value. This is not the full list of results. The source may hold further records. The values listed for one entry read as repeated measurements on other runs, samples or individuals. What stands in brackets tells the records apart. The letters are not those of the source and start again with each entry.

The assay concerns the target T1, TSPO (Mus musculus, UniProt P50637).
T1 construct: mitochondrial-enriched membranes from DBT cells were prepared by lysing cells with ice-cold homogenization buffer; endogenous in cells; host or cells: DBT mouse astrocytoma cells (mitochondrial-enriched membranes / homogenates), untreated or cytokine-treated
Description: Filtration radioligand binding assay, [^3H]-PK 11195 binding to DBT cell homogenates. Particulars: read-out: Ki, competition for [^3H]-PK 11195 binding. The procedure: Enriched membranes were prepared according to [28]. Briefly, mitochondrial-enriched membranes from DBT cells were prepared by lysing cells with ice-cold homogenization buffer (50 mM Tris, 1 mM EDTA and 3 mM MgCl2), followed by dounce homogenization (five gentle strokes). Homogenates were centrifuged (40,000×g, 15 min, 4°C) and cell pellet resuspended in 0.5 ml homogenization buffer, re-homogenized by dounce (five gentle strokes while on ice) and centrifuged again (40,000×g, 15 min, 4°C). Cell pellets were stored at −80°C until further use. Radioligand binding assays were performed in silanized glass test tubes (Kimble Glass Inc.). […] Five ml of Ecoscint XR scintillation fluid (National Diagnostics, Atlanta, GA) was added, followed by 10 sec vortexing and ∼18 hrs incubation at room temperature prior to determining the radioactivity with a scintillation counter (PerkinElmer, Boston MA).
Data are expressed as n = number of determinations (three per independent experiment). Statistical analysis, Kd and Ki values were calculated using non-linear regression with a one binding site hyperbola, where X is the concentration of the ligand, Y is specific binding and Bmax and Kd are determined using this equation: Y = Bmax X/Kd+X calculated by GraphPad Prism 4.

The term Ki denotes a measure of affinity in units of concentration, obtained from inhibition or displacement. With `CCC(C)N(C)C(=O)c1cc2ccccc2c(-c2ccccc2Cl)n1` (stereo not shown) [PK 11195], the Ki is 2 nM [passage A] and 41 nM [passage B].
